# Assay results taken from the supplement of paper PMC7726561.
# Whole data set: some 1,100 sequences, median “thermal melting temperature (Tm) of peptide-HLA complex” near 58, cut for the lowest 2% near 42. The list shows a part of the results.
# Target: HLA-A*02:01
# Experiment: thermal melting temperature (Tm) of peptide-HLA complex; higher = more thermostable pHLA complex
# Conditions: C1R-A*02:01
# 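Also: cell lysates heated 10 min at 37–73 °C, remaining pHLA pulled down with pan-class I antibody, peptides quantified by DIA-MS versus 37 °C, Tm where half the complex is lost.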
row,Sequence,thermal melting temperature
1,GLKGRVFEV,61.3 °C
2,AMPALAPPEV,53.8 °C
3,QLAQFVHEV,62.3 °C
4,HLDESLVLL,49 °C
5,AVLPFSPAL,59 °C
6,TLSDLRVYL,64.7 °C
7,WLEENVHEV,58.2 °C
8,KLQEFLQTL,60.3 °C
9,WLKQEVPEV,59.9 °C
10,GLSPEIHTL,44.9 °C
11,SLLDGHFVL,40.1 °C
12,KVLEVTEEFGV,62.6 °C
13,ALNEQIARL,58.3 °C
14,FMLTQPHSV,59 °C
15,ALANGVSRI,55.8 °C
16,ALAPGLPTA,63.1 °C
17,ILGIQPPSV,56.9 °C
18,YLYPDITRL,63.3 °C
19,VLIPKLPQL,60.2 °C

row,Sequence,thermal melting temperature
1,YLISQVEGHQV,58.7 °C
2,ILPERFLAV,60.8 °C
3,YLITGNLEKL,56.5 °C
4,FLAEDPKVTL,59 °C
5,RLSELGITQA,59.2 °C
6,KLIPQLPTL,61.5 °C
7,NLLTHIENV,60.5 °C
8,SLDDTELRL,60.2 °C
9,ALWEDEGVRA,52.5 °C
10,ALERLLPQV,59.2 °C
11,GLWEIENNPTV,60.7 °C
12,IVIGVLHQL,43 °C
13,SVITQVFHV,58.7 °C
14,VILESDPQQVV,40.1 °C
15,FLYDDNQRV,57.5 °C
16,AMSNLVPPVEL,53.7 °C
17,IAPPVPLKA,53 °C
18,KLLDEAIQAV,62 °C
19,GLIEKNIEL,61.4 °C

row,Sequence,thermal melting temperature
1,SLLDPVPEV,62.5 °C
2,WLAEKLPTL,62 °C
3,RLQEEINEV,55.3 °C
4,SQTFVNPHV,57.8 °C
5,ALVVQVAEA,56.4 °C
6,ALIDGKNFSA,53.5 °C
7,ATYVFLHTV,56.8 °C
8,ILEEGKEILV,46.3 °C
9,YLTAFTKNL,60.8 °C
10,VLIDYQRNV,60.1 °C
11,YQWDDPDPRL,48.9 °C
12,YGLPVVVKL,51.8 °C
13,SLAQYNPKL,61.1 °C
14,VLLSEQGDVKL,52.6 °C
15,VLGTSNFKV,58 °C
16,VIAEILRGV,58.8 °C
17,GLLQINDKIAL,41.7 °C
18,LLPSVRQEV,51.6 °C
